Reference: the supplement of paper PMC3334620
In all, about 33,000 sequences were measured (“E-score (-0.5 to 0.5)”: median about -0.035, highest 2% from about 0.34 on). The list shows a part of the results.

These sequences were tested against T1, Mot3 (UniProt P54785) (assay: PBM E-score (8-mer binding enrichment) (E-score (-0.5 to 0.5)); higher = stronger / more preferred TF binding; most listed sequences are background and not binding sites). Details: protein concentration: 200 nM; construct: GST-full length.
T1 sequence: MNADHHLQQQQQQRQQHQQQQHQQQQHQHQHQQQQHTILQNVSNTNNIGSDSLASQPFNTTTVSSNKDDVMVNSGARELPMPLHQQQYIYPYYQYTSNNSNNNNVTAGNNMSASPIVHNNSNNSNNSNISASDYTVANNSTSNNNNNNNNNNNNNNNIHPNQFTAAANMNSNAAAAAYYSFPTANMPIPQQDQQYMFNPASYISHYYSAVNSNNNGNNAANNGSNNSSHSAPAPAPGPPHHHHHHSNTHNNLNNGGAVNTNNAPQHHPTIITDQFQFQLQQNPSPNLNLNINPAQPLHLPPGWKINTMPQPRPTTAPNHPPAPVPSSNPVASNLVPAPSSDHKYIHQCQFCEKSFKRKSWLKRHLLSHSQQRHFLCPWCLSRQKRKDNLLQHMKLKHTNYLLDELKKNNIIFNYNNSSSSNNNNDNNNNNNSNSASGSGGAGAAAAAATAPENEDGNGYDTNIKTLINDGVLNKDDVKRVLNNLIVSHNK
In short: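 Full-length yeast transcription factors or their DNA-binding domains, GST-tagged and expressed with PURExpress, were applied at about 100-200 nM to universal all-10-mer Agilent arrays. These arrays had been made double-stranded by primer extension on fresh or once-stripped slides. Detection used fluorescent anti-GST, normalisation used masliner, and E-scores for ungapped eight-base words pooled with reverse complements came from the Universal PBM Analysis Suite.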
In the case of ATACTGTG, the “PBM E-score” value is reported as 0.013. ATCATTAC was tested, and the “PBM E-score” value was 0.228. CAACCCTA was tested, and the “PBM E-score” value was -0.0507. For ATAGTCGC, the “PBM E-score” value was -0.226. For CGTGGCTC, the “PBM E-score” value was -0.217. In the case of ATGTGAGA, the “PBM E-score” value is reported as -0.00499. In the case of CCGGCCTA, the “PBM E-score” value is reported as -0.056. CTTCTATC was tested, and the “PBM E-score” value was -0.047. With AAGCCAGC the “PBM E-score” value was 0.00078. In the case of AGAACTTG, the “PBM E-score” value is reported as -0.013. With AATGGCTG the “PBM E-score” value was -0.155. For GTAGCTTA, the “PBM E-score” value was -0.111. For CATCCTCC, the “PBM E-score” value was -0.151. CGCGGCCA was tested, and the “PBM E-score” value was -0.213. For GCGGAACA, the “PBM E-score” value was -0.17. In the case of GGGCGACC, the “PBM E-score” value is reported as -0.398. With CGGTGAAC the “PBM E-score” value was -0.0708. For CAGCTAGG, the “PBM E-score” value was -0.0566. In the case of CACGTCTG, the “PBM E-score” value is reported as 0.0378. In the case of ACGTCACA, the “PBM E-score” value is reported as 0.0936. With CGATATAG the “PBM E-score” value was 0.0679. In the case of CAACTGCA, the “PBM E-score” value is reported as 0.0273. For AAATACAC, the “PBM E-score” value was 0.37. For CTTTCAAC, the “PBM E-score” value was 0.161. For AACCTTGC, the “PBM E-score” value was 0.121. ACCCTTAC was tested, and the “PBM E-score” value was -0.0328. For CGATAAAA, the “PBM E-score” value was -0.0825. For CCTCAGGC, the “PBM E-score” value was 0.231. In the case of AAGACCGG, the “PBM E-score” value is reported as -0.247. For AGGGTTAG, the “PBM E-score” value was -0.0651. With CGGACTCC the “PBM E-score” value was -0.105. With GTCGTCCA the “PBM E-score” value was -0.0835. With ACATATGA the “PBM E-score” value was 0.131. For AATGGGAC, the “PBM E-score” value was -0.207. In the case of CACGATCG, the “PBM E-score” value is reported as 0.0843. For CAAATCGG, the “PBM E-score” value was -0.285. CAACATAA was tested, and the “PBM E-score” value was 0.289. With GTGAGCAC the “PBM E-score” value was -0.0528. For CAGGTGCA, the “PBM E-score” value was 0.0796. For AGTGCAAA, the “PBM E-score” value was 0.101. In the case of ACCCGTCA, the “PBM E-score” value is reported as -0.239. With AGCGCCCC the “PBM E-score” value was -0.216. In the case of CACGCTCG, the “PBM E-score” value is reported as 0.0432. CTTTGTTA was tested, and the “PBM E-score” value was 0.218. With CTTGAGGA the “PBM E-score” value was -0.0875. For ATTATGAC, the “PBM E-score” value was 0.0522. For CGGGACCC, the “PBM E-score” value was -0.0194. GTAAGTTA was tested, and the “PBM E-score” value was 0.162. With ATCTGGTA the “PBM E-score” value was 0.192. With CAAGCATC the “PBM E-score” value was -0.0764. ACGTACGC was tested, and the “PBM E-score” value was 0.253. For AGACCTCC, the “PBM E-score” value was -0.413. In the case of CTCGTCTC, the “PBM E-score” value is reported as -0.289. ACAAGGAC was tested, and the “PBM E-score” value was 0.0766. With CGTTATTA the “PBM E-score” value was 0.167. For AGGGAATA, the “PBM E-score” value was 0.0807. TATATATA was tested, and the “PBM E-score” value was 0.179. For ATGCATGG, the “PBM E-score” value was 0.0636. With GATGTCAA the “PBM E-score” value was 0.144. In the case of ATTCCAGA, the “PBM E-score” value is reported as -0.185. In the case of CATGGGGA, the “PBM E-score” value is reported as -0.0458. In the case of GAGAATCA, the “PBM E-score” value is reported as -0.261. TATCCGCA was tested, and the “PBM E-score” value was 0.134. With CGACCAAG the “PBM E-score” value was -0.0763. With TGGAAAAA the “PBM E-score” value was 0.0684. For AGTACTAG, the “PBM E-score” value was 0.0604. In the case of CTTTTGAC, the “PBM E-score” value is reported as 0.26. AGAACAGA was tested, and the “PBM E-score” value was 0.158. In the case of CATGCTCC, the “PBM E-score” value is reported as 0.0425. For AGTGCGGG, the “PBM E-score” value was -0.241. In the case of CTCTTCAG, the “PBM E-score” value is reported as -0.203. In the case of AGGCGCTG, the “PBM E-score” value is reported as 0.199. In the case of ATGTTCAC, the “PBM E-score” value is reported as 0.213. For CCGACATC, the “PBM E-score” value was -0.275. With GAAGTGGC the “PBM E-score” value was -0.22. CCTACGGA was tested, and the “PBM E-score” value was 0.119. In the case of GCCGTTTA, the “PBM E-score” value is reported as -0.0385. CGTTTGTA was tested, and the “PBM E-score” value was 0.167. ACCGGCAG was tested, and the “PBM E-score” value was -0.222. For CAGCGCGC, the “PBM E-score” value was -0.043. AACGACTC was tested, and the “PBM E-score” value was -0.0648. With GCTACACA the “PBM E-score” value was 0.253. CTGGAAAC was tested, and the “PBM E-score” value was 0.0157. In the case of TAGAGCCA, the “PBM E-score” value is reported as -0.0709. In the case of CATGAGTC, the “PBM E-score” value is reported as 0.0784. With AATGAATC the “PBM E-score” value was -0.0146.
